Reference: PMC10668032
Some of the results follow. At the low end of the ranking the order means little.

What follows are sequences tested against SIX1 homeodomain (reference allele) (UniProt Q15475) (assay: universal protein binding microarray). Settings: Universal all-10-mer PBM (8x60K, AMADID 030236), 300 nM GST-tagged protein, Alexa Fluor 488 anti-GST; buffer, salt, pH and temperature not stated; high values mean tight binding; most listed sequences are background and not binding sites; double strand, one strand shown.
CGCAGGAG showed a binding signal of -0.0766 E-score. With ACACCTCT the binding signal was 0.239 E-score. In the case of CCGATTAA, the binding signal is reported as 0.0588 E-score. GTCGGTCA gave a binding signal of -0.167 E-score. For CGCTGACC, the binding signal was 0.0376 E-score. Sequence CTCTGTCA has a binding signal of -0.209 E-score. ATGGGCTG was tested, and the binding signal was -0.0694 E-score. For CCCCACAG, the binding signal was 0.0544 E-score. With AGGGAATC the binding signal was 0.0233 E-score. With AGTGACGC the binding signal was -0.151 E-score. GCCTTTAA showed a binding signal of -0.0709 E-score. In the case of GCACGGAC, the binding signal is reported as -0.0842 E-score. Work on GAGACCAA yielded a binding signal of -0.0593 E-score. In the case of GCATAATA, the binding signal is reported as 0.187 E-score. With ATATGTCC the binding signal was 0.265 E-score. With GCCTACCC the binding signal was -0.207 E-score. In the case of AAGCCCGT, the binding signal is reported as -0.257 E-score. With CCGCGAGC the binding signal was 0.0212 E-score. For ACAGCGGC, the binding signal was -0.196 E-score. AATCGTGC showed a binding signal of -0.0472 E-score. For ACTTCCTG, the binding signal was -0.192 E-score. CAACGACC was tested, and the binding signal was -0.195 E-score. For AGCTTCCT, the binding signal was -0.151 E-score. AAAACTAA showed a binding signal of -0.271 E-score. For ACCGACAA, the binding signal was -0.0625 E-score. In the case of CGGCTTAG, the binding signal is reported as -0.00357 E-score. GAACGGTC gave a binding signal of -0.144 E-score. For CGCAGTCA, the binding signal was -0.225 E-score. With TCCCGAAA the binding signal was 0.0475 E-score. AGGGTCCA showed a binding signal of 0.000675 E-score. CCCCGAGC showed a binding signal of 0.0493 E-score. AGTAGTAT was tested, and the binding signal was 0.349 E-score. AACAGCGA gave a binding signal of -0.00492 E-score. Sequence GAAAGACA has a binding signal of -0.122 E-score. GCTCCTCC gave a binding signal of -0.07 E-score. CCAGCCTC showed a binding signal of -0.0739 E-score. AGTAAGCC showed a binding signal of -0.168 E-score. Sequence CATCGATC has a binding signal of 0.118 E-score. Work on ACAATTTA yielded a binding signal of -0.208 E-score. CCAGTTCA was tested, and the binding signal was -0.0641 E-score. Work on GCCTGCCA yielded a binding signal of -0.309 E-score. GTTGATCA was tested, and the binding signal was 0.0755 E-score. For TCAGAGGA, the binding signal was 0.0858 E-score. GTTTGATA showed a binding signal of 0.379 E-score. CATCTTCG was tested, and the binding signal was -0.164 E-score. CTACCACC gave a binding signal of -0.118 E-score. CGTGAAAG showed a binding signal of 0.0691 E-score. Work on CTAGCCAA yielded a binding signal of -0.00352 E-score. AGTATTCA was tested, and the binding signal was 0.13 E-score. AAATGAGT gave a binding signal of -0.0474 E-score. CGCGACAC showed a binding signal of 0.254 E-score. For AGGAACGA, the binding signal was -0.217 E-score. ACACTCCC showed a binding signal of 0.0165 E-score. For CTGCCGAC, the binding signal was 0.0431 E-score. In the case of CTGATCCA, the binding signal is reported as 0.357 E-score. GACGAAGC gave a binding signal of -0.196 E-score. Sequence AATCGTAT has a binding signal of 0.133 E-score. In the case of ATGGCGCC, the binding signal is reported as -0.125 E-score. With GAACGTTC the binding signal was -0.241 E-score. CGGGCTGC was tested, and the binding signal was -0.3 E-score. CGACTGCC was tested, and the binding signal was -0.18 E-score. GGCGTACC was tested, and the binding signal was 0.0215 E-score. Work on ACGAATAA yielded a binding signal of -0.157 E-score. AAAGACGA showed a binding signal of -0.107 E-score. CGGATGAG was tested, and the binding signal was 0.183 E-score. With ACCGATAC the binding signal was 0.453 E-score. Work on CTGAGTGA yielded a binding signal of 0.0576 E-score. For GCAATGTA, the binding signal was 0.0375 E-score. Sequence GAGCAGAC has a binding signal of -0.243 E-score. Sequence CTCTCAGC has a binding signal of -0.155 E-score. Work on ACTCTCTA yielded a binding signal of -0.129 E-score. With ACTGTGGC the binding signal was -0.0786 E-score. CCCTAATC was tested, and the binding signal was 0.0179 E-score. CAATCCAC was tested, and the binding signal was 0.168 E-score. With AGCCTACA the binding signal was -0.106 E-score. GGATAGGA showed a binding signal of 0.28 E-score. With GAACTAGC the binding signal was -0.134 E-score. Sequence ACCTATTG has a binding signal of 0.0963 E-score. In the case of ATGGCTTA, the binding signal is reported as -0.0693 E-score. CCCTTTCG was tested, and the binding signal was -0.099 E-score. With ACCAAGGC the binding signal was -0.083 E-score. Work on CAGACATG yielded a binding signal of -0.0513 E-score. CAGTTGAC showed a binding signal of -0.0836 E-score. ATGCCACC gave a binding signal of 0.0364 E-score. For CGTTTAAA, the binding signal was -0.188 E-score. GACAGTGC was tested, and the binding signal was -0.12 E-score. In the case of AACGCTCT, the binding signal is reported as -0.283 E-score. CGCGTTCA gave a binding signal of -0.102 E-score. CTTGCTTC gave a binding signal of -0.182 E-score. Work on GGGCGGAC yielded a binding signal of -0.174 E-score. Sequence AACGTCCA has a binding signal of -0.159 E-score. TGACATCA gave a binding signal of -0.156 E-score. In the case of AAACCGTC, the binding signal is reported as 0.00316 E-score. Sequence GGCCTCCA has a binding signal of -0.213 E-score. AAAGCCAG gave a binding signal of -0.106 E-score. Work on GTAGCACA yielded a binding signal of -0.124 E-score. ACACAGGG was tested, and the binding signal was -0.108 E-score. In the case of CGACTCGA, the binding signal is reported as -0.129 E-score. With GAATATCA the binding signal was 0.366 E-score. CGATATAC showed a binding signal of 0.405 E-score. CGCTCCCG was tested, and the binding signal was -0.149 E-score. With CCAGCTCG the binding signal was 0.109 E-score. AGCGTTTG gave a binding signal of -0.353 E-score. With GCAATTCC the binding signal was -0.148 E-score. With ATTTGGCG the binding signal was -0.144 E-score. For ATCGCTCG, the binding signal was 0.199 E-score. With ACCTAACG the binding signal was -0.0941 E-score. Work on AGATGCTA yielded a binding signal of 0.113 E-score. In the case of ACTCGCCG, the binding signal is reported as -0.101 E-score. CCAATTCC was tested, and the binding signal was 0.102 E-score. Sequence GCATGTGA has a binding signal of 0.0199 E-score. GTCCAGGA showed a binding signal of -0.147 E-score. ACTATACG was tested, and the binding signal was 0.247 E-score. Sequence CTAGGAAG has a binding signal of -0.0927 E-score. Sequence TCGGAGCA has a binding signal of -0.177 E-score. ACGAACTC showed a binding signal of -0.0273 E-score. In the case of AATGCTTG, the binding signal is reported as -0.227 E-score. AGGAGATC gave a binding signal of 0.363 E-score. With CTTGAGGC the binding signal was -0.249 E-score. CAGAGCGG gave a binding signal of -0.207 E-score. Sequence AATTCAAC has a binding signal of -0.0214 E-score. ATGGAATC was tested, and the binding signal was 0.0325 E-score. ATTTTGAA showed a binding signal of -0.186 E-score. Work on GCACCTTA yielded a binding signal of -0.219 E-score. AGAAAGGG was tested, and the binding signal was -0.0959 E-score. In the case of GTGTCAGA, the binding signal is reported as 0.29 E-score. In the case of AGATCGCC, the binding signal is reported as 0.288 E-score. CAAAAGAC was tested, and the binding signal was -0.107 E-score. For GGAGTGCC, the binding signal was -0.142 E-score. Work on GATGCCAA yielded a binding signal of 0.0836 E-score. CCCTCCCA showed a binding signal of 0.0966 E-score. For AGGAAAAT, the binding signal was -0.039 E-score. CATTTAAA showed a binding signal of -0.0348 E-score. AAGCATTA showed a binding signal of -0.148 E-score. Work on GGAATGGA yielded a binding signal of -0.233 E-score. In the case of CCTCTAGA, the binding signal is reported as 0.158 E-score. TACTAGTA gave a binding signal of 0.0474 E-score. Sequence CTCCGATA has a binding signal of 0.314 E-score. ATATGAGC gave a binding signal of 0.208 E-score. In the case of AACCTATC, the binding signal is reported as 0.246 E-score. With GGCCAAGA the binding signal was -0.142 E-score. With GACCGGAC the binding signal was -0.146 E-score. AATTGAAT gave a binding signal of -0.277 E-score. AAGCCACC was tested, and the binding signal was -0.318 E-score. GCACGAAC gave a binding signal of -0.0288 E-score. ACGAATTG showed a binding signal of -0.208 E-score. Work on GGCTGCTA yielded a binding signal of -0.0967 E-score. CAACAGCC was tested, and the binding signal was -0.204 E-score. ACGTAGCG gave a binding signal of -0.0908 E-score. For GTGGTCGA, the binding signal was -0.162 E-score. Sequence TGCTGGAA has a binding signal of -0.114 E-score. Sequence CATCTCAA has a binding signal of 0.118 E-score. ACAGCACC showed a binding signal of -0.178 E-score. CACCGGGA was tested, and the binding signal was 0.0394 E-score. Work on ACCTAACT yielded a binding signal of -0.0768 E-score. CCACGTAA showed a binding signal of -0.0978 E-score. AGATTAAC was tested, and the binding signal was 0.0376 E-score. Work on CGTGGAGC yielded a binding signal of -0.13 E-score. In the case of AAGTATAC, the binding signal is reported as 0.338 E-score. Sequence ACACGCAT has a binding signal of -0.0263 E-score. In the case of GCAAGCTA, the binding signal is reported as -0.207 E-score. In the case of ACCACGAC, the binding signal is reported as 0.0447 E-score. In the case of CAAACTTA, the binding signal is reported as -0.241 E-score. GTCAGGAA showed a binding signal of -0.134 E-score. Sequence AGTAGGCG has a binding signal of -0.0959 E-score. For TGCACGAA, the binding signal was -0.19 E-score. CGCGCGAA showed a binding signal of -0.085 E-score. With GCTGTAGA the binding signal was -0.0924 E-score. CGTACTTA was tested, and the binding signal was -0.101 E-score. Work on GATCCCGA yielded a binding signal of 0.377 E-score. CGCGGAGA was tested, and the binding signal was 0.0136 E-score. In the case of CTTCCTAC, the binding signal is reported as -0.273 E-score.
